Assays:
[1] = biological target: T1, human 4-1BBL residues 58–254, wild type, His–Avi (human, UniProt P41273 partial chain, biotinylated with the BirA Biotin-protein ligase kit when necessary (surface capture, ELISA detection)); assay: SPR; Bio-Rad ProteOn XPR36, biotinylated 4-1BBL (wild type or R171A) captured on an NLC neutravidin chip; human 4-1BB 3.2-2000 nM as analyte; 37 °C, HBS with 0.01% Tween-20 and 1 mg/mL BSA; steady-state analysis; triplicate; conditions: both partners purified
T1 construct: human 4-1BBL (TNFSF9), residues 58-254; The insect-cell construct of the same limits is a trimer; also called wild type 4-1BBL; biotinylated human 4-1BBL wild type; source: HEK cells, transfected, secreted, purified (NiExcel, Superdex 200); not shown: His8, C-terminal, kept; Avi, C-terminal, kept

[2] = biological target: T2, human 4-1BBL residues 58–254 R171A, His–Avi (human, UniProt P41273 partial chain, R171A, biotinylated with the BirA Biotin-protein ligase kit); assay: as above; conditions: both partners purified
T2 construct: human 4-1BBL (TNFSF9), residues 58-254, R171A; also called R171A mutant 4-1BBL; R171A 4-1BBL; source: HEK cells, transfected, secreted, purified (NiExcel, Superdex 200); not shown: Avi, C-terminal, kept

[3] = biological target: T1, human 4-1BBL residues 58–254, wild …; assay: ELISA; His-tagged 4-1BB WT or arginine mutants captured at 4 °C overnight by an anti-His antibody; 10 µg/ml utomilumab, urelumab or biotinylated 4-1BBL at RT for 1 h; detection with anti-human IgG Fc-HRP or streptavidin-HRP; triplicate; conditions: both partners purified
[4] = biological target: the molecule itself; assay: SEC-MALS; 4-1BB/4-1BBL complex and soluble 4-1BBL alone (Supplementary Figure 1); conditions not shown

B1: human 4-1BB […], wild type, His–Avi (receptor)
chain: not shown
notes: human 4-1BB (CD137, TNFRSF9), […]; also called h4-1BB; wild type h4-1BB receptor; source: HEK cells, transfected, secreted, purified (NiExcel, Superdex 200); not shown: His8, C-terminal, kept; Avi, C-terminal, kept
Work on B1 yielded a Kd [1] of 680 ± 31 nM and a Kd [2] of 521 ± 17 nM.

B2: human 4-1BB […] I64R, His–Avi (receptor)
chain: not shown
notes: human 4-1BB (CD137, TNFRSF9), […], I64R; source: HEK cells, transfected, secreted, purified (NiExcel, Superdex 200); not shown: His8, C-terminal, kept
B2: binds [3].

B3: human 4-1BB […] V71R, His–Avi (receptor)
chain: not shown
notes: human 4-1BB (CD137, TNFRSF9), […], V71R; source: HEK cells, transfected, secreted, purified (NiExcel, Superdex 200); not shown: His8, C-terminal, kept
B3: binds [3].

B4: human 4-1BBL […] (crystallization construct) (ligand)
chain: not shown
notes: […] visible in the ligand-only structure; also called 4-1BB ligand; TNFSF9; source: HighFive insect cells (baculovirus), secreted, purified (Ni Sepharose excel, Superdex 200)
For B4, the “stoichiometry N” value [4] was 3.
